Molecules are shown by their SMILES. Out of some 48,000 compounds screened, about 120 (0.25%) were called active. Another 4% or so got no clear call; they are omitted. Calls follow the shape of the dose curve; as a rule, active = well fitted activation curve with a large enough effect; inconclusive = small, poorly fitted or top-dose-only effect, or another doubt; inactive = no such curve, though single readings can be large or run the other way. This is one part of the list.

A short description of the test: Primary qHTS for Identification of Small Molecule Activators of Huntingtin-Antisense Promoter Activity. Also: nearly all actives have a fitted effect of over 55% in size. The following applies: HEK293 HTT-AS promoter firefly luciferase reporter (activity 0% = vehicle and -100% = no light), 24 h; series mostly up to 57.5 µM; activity change, positive = activation: at the top concentration. The method, boiled down: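 HEK293 Fluc reporter, 2,500 cells/well, 24 h pre-culture; cpds up to 57.5 uM final, 24 h 37 degrees C; Dual-Glo, 10 min RT; normalized vehicle = 0%, zero RLU = -100%.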
For orientation: In qHTS, concentration-response curves come from the screen itself.
With `Cc1ccccc1Cn1nnc2sc3c(c2c1=O)CCCC3`, the “activity change, positive = activation” value is inactive: -3.71%.
For `CCOC(=O)c1c(NC(=O)Nc2ccc(F)cc2)sc(C(=O)N(C)C)c1C`, the “activity change, positive = activation” value is inactive: -11.1%.
Consider `COc1ccc(CCNC(=O)c2ccc3c(c2)N(Cc2ccccc2Cl)C(=O)c2ccccc2S3)cc1OC`, for which the “activity change, positive = activation” value is inactive: -14.4%.
The same measure for `Cn1cc(CCCC(=O)NCc2cccc(Br)c2)c2ccccc21`: inactive: -16.7%.
The same measure for `COc1ccc(-c2cccc(NS(=O)(=O)c3cc(C(F)(F)F)ccc3Cl)c2)nn1`: inactive: -26.2%; for `CCc1nc2ccc(C(=O)NCc3ccccc3C)cc2nc1CC`: inactive: 7.39%.
In the case of `O=c1c(NCc2cccs2)nccn1-c1ccccc1`, the “activity change, positive = activation” value is inactive: 24.6%.
Take `CN=C(N)NC(=O)Nc1c(C)cccc1C`: the “activity change, positive = activation” value was inactive: -6.53%.
For the molecule `COc1ccc(-n2cc(-c3ccccc3)c3c(N4CCCC(C)C4)ncnc32)cc1` (stereo not drawn), the “activity change, positive = activation” value was inactive: -6.84%.
Consider `Cc1ccc(CN2c3ccccc3-c3nc(SCC(=O)NCc4ccccc4)ncc3S2(=O)=O)cc1`, for which the “activity change, positive = activation” value was inactive: -5.97%.
Consider `O=C(CS(=O)(=O)c1cccc2nsnc12)NCc1ccccc1Cl`, for which the “activity change, positive = activation” value is inactive: -3.39%.
For `COc1ccc(C(=O)NCCc2csc(-c3ccc(Cl)cc3)n2)cc1`, the “activity change, positive = activation” value is inactive: -18.7%.
In the case of `CCC(Oc1ccc(F)cc1)C(=O)Nc1nc2c(s1)CCCC2` (stereo not drawn), the “activity change, positive = activation” value is inactive: -10.1%.
Take `CCc1ccc(-c2cc(C)no2)cc1S(=O)(=O)NCc1ccco1`: the “activity change, positive = activation” value is inactive: -22.9%.
The figure for `O=C(c1cncc(Br)c1)N1CCC(N2CCCC2)CC1` is inactive: -0.646%; for `Cc1cnc(C(=O)O)c[n+]1[O-]` it is inactive: -4.59%; for `COc1ccc(C2=N[C@H](c3ccc(Cl)cc3)[C@H](c3ccc(Cl)cc3)N2C(=O)N2CCNC(=O)C2)c(OC(C)C)c1` it is inactive: -17%.
Turning to `COc1ccc(C(=O)N2c3nc(-c4ccco4)nn3C3(CCCCC3)[C@@H]3CCCC[C@@H]32)cc1OC`, the “activity change, positive = activation” value is inactive: -26.8%.
Turning to `CC(=O)Nc1cccc(O)c1`, the “activity change, positive = activation” value was inactive: -3.7%.
In the case of `Cc1cccc(C(=O)N2CCCCC2CCN2CCCCC2)c1` (stereo not drawn), the “activity change, positive = activation” value is inactive: -2.49%.
For `O=C(Nc1ccc(F)cc1)c1oc2ccccc2c1NC(=O)C1CCCCC1`, the “activity change, positive = activation” value is inactive: -6.86%.
On to `O=C(NC1CCCCC1)c1ccc(Cn2c(SCc3ccccc3)nc3cccnc32)cc1`, for which the “activity change, positive = activation” value is inactive: -5.82%.
For `CCCCCCc1cc2cc(-c3nnc(-c4cccc(Cl)c4)o3)c(=O)oc2cc1O`, the “activity change, positive = activation” value was inactive: -14%.
Consider `Cc1ccc(NC(=O)c2oc3ccc(S(=O)(=O)N4CCCCC4)cc3c2C)c(C)c1`, for which the “activity change, positive = activation” value is inactive: 0%.
The figure for `Cc1cccc(N2CCN(C(=O)C(C)n3nc(C)n4c(cc5occc54)c3=O)CC2)c1C` (stereo not drawn) is inactive: -13.9%; for `Cc1cc(C)c(NC(=O)c2c(C)oc3c2C2=NCCN2C=N3)c(C)c1` it is inactive: 2.5%; for `Cc1cc(C)c(NC(=O)CN2C(=O)C3(SCC(=O)N3c3ccc(F)cc3)c3ccccc32)c(C)c1` (stereo not drawn) it is inactive: -25.6%.
Consider `CCc1ccc(CNC(=O)Cn2nc(-c3ccc(Cl)cc3)ccc2=O)cc1`, for which the “activity change, positive = activation” value is inactive: -33%.
`COc1ccc(C2c3c(n(C)c4ccccc34)C(=O)N2CC(=O)Nc2ccc(C)cc2Cl)cc1` (stereo not drawn): the “activity change, positive = activation” value is inactive: -25.8%.
As for `CCN(CC)S(=O)(=O)c1ccc(-c2csc(=Nc3cccc(C(F)(F)F)c3)n2Cc2ccc3c(c2)OCO3)cc1`, the “activity change, positive = activation” value is inactive: -16.7%.
As for `CCOC(=O)C1=C(O)C(=O)N(Cc2ccccc2)C1`, the “activity change, positive = activation” value is inactive: -6.82%.
As for `O=c1c(O)c(-c2ccc(O)c(O)c2)oc2cc(O)cc(O)c12`, the activity change, positive = activation result was “inactive”.
Turning to `Cc1ccc(S(=O)(=O)N2CCCc3cc(NS(=O)(=O)c4ccc(F)cc4)ccc32)cc1`, the “activity change, positive = activation” value was inactive: -38.8%.
The figure for `CN(C)c1ccc(CNC(=O)C2CCN(S(=O)(=O)c3ccc4c(c3)oc(=O)n4C)CC2)cc1` is inactive: -6.63%.
`COc1cccc(NC(=O)Cn2c(=O)n(Cc3ccc(C(=O)NCc4ccc5c(c4)OCO5)cc3)c(=O)c3ccccc32)c1`: the “activity change, positive = activation” value is inactive: -5.32%.
Take `Nc1c(C(=O)NCCc2ccccc2)nnn1CC(=O)Nc1ccc(Cl)cc1`: the “activity change, positive = activation” value was inactive: -6.54%.
In the case of `O=C(CSc1nc2c([nH]c3ccccc32)c(=O)n1-c1ccccc1)c1ccc(Cl)cc1`, the “activity change, positive = activation” value was inactive: -3.56%.
In the case of `COc1cc(NS(=O)(=O)c2ccc3[nH]c4c(c3c2)CCCC4)cc(OC)c1OC`, the “activity change, positive = activation” value is inactive: -55.4%.
With `C=Cc1ccc(Cn2c(C(=O)O)c(CNCCc3ccccc3)c3ccc(C)cc32)cc1`, the “activity change, positive = activation” value was inactive: -47.7%.
For `CCCn1c(CCC(=O)Nc2cccc(C)c2C)nc2cccnc21`, the “activity change, positive = activation” value is inactive: -19.4%.
Regarding `Cc1ccccc1OCCCCn1c(C2CC(=O)N(c3ccccc3Cl)C2)nc2ccccc21` (stereo not drawn), the “activity change, positive = activation” value was inactive: -34.3%.
On to `CCOC(=O)C1CCCN(c2c(C(=O)c3ccc(C)cc3)cnc3ccc(OCC)cc23)C1` (stereo not drawn), for which the “activity change, positive = activation” value is inactive: -32.5%.
For `COc1ccc(CC(=O)Nc2ccc3nc(Nc4cccc(Cl)c4)cc(C)c3c2)cc1`, the “activity change, positive = activation” value was inactive: -44.2%.
Consider `Cc1ccc(Nc2c(-c3ccc(N4CCOCC4)cc3)nc3c(C)cccn23)cc1`, for which the “activity change, positive = activation” value is inactive: -4.04%.
For the molecule `O=C(O)C1(C(=O)O)CCC1.[NH2-].[NH2-].[Pt+2]`, the “activity change, positive = activation” value was inactive: -4.92%.
With `COCCCn1c(=O)c2sccc2n2c(CCCC(=O)Nc3ccc(F)c(F)c3)nnc12`, the “activity change, positive = activation” value is inactive: -20.6%.
`Cc1ccc2nc(NC(=O)c3ccc(S(=O)(=O)N4CCCc5ccccc54)cc3)sc2c1`: the “activity change, positive = activation” value was inactive: -34.8%.
As to `COc1ccc(CNC(=O)CCC2N=C3c4ccccc4N=C(SCc4ccc(F)cc4)N3C2=O)cc1` (stereo not drawn), the “activity change, positive = activation” value is inactive: 2.82%.
In the case of `O=C(C1CCCCC1)N(Cc1cccnc1)c1nc2c(F)cc(F)cc2s1`, the “activity change, positive = activation” value was inactive: -14.3%.
Regarding `COc1ccc(OC)c(NC(=O)c2c(NCc3ccc(OC)c(OC)c3)sc3c2CCC(C)C3)c1` (stereo not drawn), the “activity change, positive = activation” value was inactive: -27%.
The same measure for `CCN1CCOC(=O)C1CC(=O)Nc1ccc(C)c(Cl)c1` (stereo not drawn): inactive: -14.1%.
Regarding `Nc1c(C(=O)Nc2cccc(F)c2)sc2nc(-c3cccs3)ccc12`, the “activity change, positive = activation” value is inactive: 12%.
With `Cc1cc(C)nc(NS(=O)(=O)c2ccc(NC(=O)c3cc(=O)c4ccc(C)c(C)c4o3)cc2)n1`, the “activity change, positive = activation” value is inactive: -11%.
For the molecule `CN1CCN(C2(CNC(=O)c3ccc([N+](=O)[O-])cc3)CCCCC2)CC1`, the “activity change, positive = activation” value was inactive: -9.65%.
With `Cc1ccccc1-c1nc2scc(CCNC(=O)C(=O)Nc3ccc(F)cc3F)n2n1`, the “activity change, positive = activation” value was inactive: -5.31%.
The figure for `CCc1ccccc1NC(=O)CSc1nc2ncccc2o1` is inactive: -20.2%; for `O=C(CCc1ccccc1)N1CCc2c([nH]c3ccccc23)C1c1ccc(Cl)cc1` (stereo not drawn) it is inactive: -38.4%; for `O=C(CC(c1cccs1)N1Cc2ccccc2C1=O)Nc1ccc(F)cc1F` (stereo not drawn) it is inactive: -27.2%.
As to `O=C(CSc1nc(=O)n(CCN2CCOCC2)c2c1CCC2)Nc1cccc(Cl)c1`, the “activity change, positive = activation” value is inactive: -14.7%.
Turning to `COc1ccc(C(CNC(=O)Cc2ccc(Cl)cc2)N2CCOCC2)cc1` (stereo not drawn), the “activity change, positive = activation” value was inactive: -7.66%.
As for `Cc1cccc(CC(=O)NC2CC(=O)N(c3ccccc3)C2)c1` (stereo not drawn), the “activity change, positive = activation” value is inactive: -10.3%.
As to `Cc1ccc(C2=CC(c3ccc(Cl)cc3)n3nc(-c4ccc(C)cc4)nc3N2)cc1` (stereo not drawn), the “activity change, positive = activation” value is inactive: -32.7%.
As for `CC(C)c1ccc(C2c3c(oc4ccc(Cl)cc4c3=O)C(=O)N2CCCN2CCOCC2)cc1` (stereo not drawn), the “activity change, positive = activation” value is inactive: -25.6%.

The values are drawn from PubChem BioAssay AID1508624 (National Center for Advancing Translational Sciences (NCATS), 2021).
